# In PubChem BioAssay AID485344 (National Center for Advancing Translational Sciences (NCATS), 2010):
# In all, about 340,000 compounds went through this assay and about 6,900 (2%) were called active. No stated cut-off is given here; in the data, active means inhibition above about 30%; inactive means below that, where a call was filed. Only a part is listed here, and it is no random draw. Entries without a call were filed so in the source.
# Molecular target: D(2) dopamine receptor (Homo sapiens) (UniProt P14416)
# Experiment: HTS Assay for Allosteric Antagonists of the Human D2 Dopamine Receptor: Primary Screen for Antagonists; further: 0% is about no effect
# Conditions: HEK293 TREx D2 cells, calcium flux, dopamine EC80; at 10 µM; stronger effect = higher value
# In short: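 Measurement of antagonist activity uses fluorescent calcium dye in inducible HEK293 T-REx D2 cells: 10 s baseline, compound addition with 180 s read, EC80 dopamine addition with a further 180 s read.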
# Chain of UniProt P14416 (P14416 whole entry, looked up): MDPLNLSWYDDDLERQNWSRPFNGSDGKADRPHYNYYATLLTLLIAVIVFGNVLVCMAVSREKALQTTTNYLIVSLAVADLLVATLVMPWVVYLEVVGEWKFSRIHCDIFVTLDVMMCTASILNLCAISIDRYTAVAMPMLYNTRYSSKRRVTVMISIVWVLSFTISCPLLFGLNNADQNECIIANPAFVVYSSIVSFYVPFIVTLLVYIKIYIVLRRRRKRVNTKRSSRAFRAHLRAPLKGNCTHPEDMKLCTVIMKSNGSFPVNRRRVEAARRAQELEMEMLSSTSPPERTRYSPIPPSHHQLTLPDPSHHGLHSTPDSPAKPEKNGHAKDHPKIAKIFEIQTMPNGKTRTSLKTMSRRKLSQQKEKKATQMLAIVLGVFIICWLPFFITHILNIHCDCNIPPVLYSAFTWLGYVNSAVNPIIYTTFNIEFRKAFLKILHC
row,Structure (SMILES),inhibition
1,COC(=O)c1c(SCC(=O)Nc2cccc(Cl)c2C)[nH]c2ccccc2c1=O,3.78%
2,CN(C(=O)c1c2c(nc3ccccc13)C(=O)N(C1CCCCC1)C2)c1ccc(F)cc1,14.8%
3,COc1cccc(-c2nc(SCc3ccc(C)cc3)n3[nH]c(=O)cc3n2)c1,-5.63%
4,CC(C)(C)OC(=O)N1CCC(c2c(C(=O)N3CCC(c4ccccc4)C3)cnn2-c2ccc(Cl)cc2)CC1 (stereo not given),-4.47%
5,O=[N+]([O-])c1ccc(S(=O)(=O)N2CCn3cccc3C2c2ccccc2F)cc1 (stereo not given),-0.353%
6,CCOC(=O)c1c(C)oc2ncnc(N3CCN(c4ccccc4)CC3)c12,-4.7%
7,Cc1ccc(C)c(N2CCN(c3nc4ccc(Cl)cc4n4cnnc34)CC2)c1,6.98%
8,CCOC(=O)CC(NC(=O)c1cc2c(=O)n3cccc(C)c3nc2s1)c1ccc(OCC(C)C)c(OC)c1 (stereo not given),5.91%
9,COc1ccc(-c2c(C)nn3c(-c4ccccc4)cc(-c4ccccc4)nc23)cc1OC,14.1%
10,COc1ccc(CCN2C(=O)c3[nH]nc(-c4ccccc4O)c3C2c2ccc(O)c(OC)c2)cc1 (stereo not given),11%
11,COC(=O)c1ccc(NC(=O)CCNS(=O)(=O)c2cccc3nsnc23)cc1,2.95%
12,O=c1cc(-c2c(F)c(F)c(F)c(F)c2F)oc2c(F)c(F)c(F)c(F)c12,active: 56.5%
13,O=C(CSc1nc2c([nH]c3ccccc32)c(=O)n1-c1ccc(F)cc1)N1CCCc2ccccc21,4.7%
14,CCOC(=O)Cn1c(=O)n(C2CCCCC2)c2nc(-c3ccccc3Cl)nc(C(N)=O)c21,10.2%
15,COc1cc(NC(=O)c2cc(C3CC3)nc3c2c(C)nn3-c2ccc(C)cc2)cc(OC)c1,3.75%
16,Cc1cccc(C)c1OCc1nc2c3cnn(-c4ccccc4Br)c3ncn2n1,-9.37%
17,CC(O)CNCCOc1ccccc1-c1ccccc1 (stereo not given),active: 57.8%
18,Cc1cccc(CNC(=O)c2ccc3nc(-c4ccccc4)c(-c4ccccc4)nc3c2)c1,-8.66%
19,Cc1c(C(=O)NCc2ccccc2Cl)cccc1-n1cnc2cccnc21,1.74%
20,CCC1(c2ccccc2)C(=O)NCNC1=O,active: 33.1%
21,Cc1cccc(NC(=O)Cn2c(=O)n(CCc3ccccc3)c(=O)c3sc4ccccc4c32)c1,-5.02%
22,O=C(Cn1c(=O)n(-c2ccccc2)c(=O)c2c3c(sc21)CCCC3)Nc1cccc(F)c1,-8.1%
23,COc1cccc(Cc2nc3ccccc3nc2SCC(=O)Nc2ccccc2F)c1,-5.49%
24,CN(C)c1ccc(CNC(=O)c2ccc(NC(=O)c3nsc4ccccc34)cc2)cc1,2.82%

row,Structure (SMILES),inhibition
1,CCn1c(=O)cc(OCC(=O)Nc2cc(OC)c(OC)c(OC)c2)c2ccccc21,-2.86%
2,COCCNC(=O)CSc1nc2ccccc2nc1Cc1ccc(C)cc1,-16.7%
3,CCc1ccc(S(=O)(=O)c2c(C(=O)c3ccc(C)c(C)c3)cnc3ccccc23)cc1,-0.554%
4,CCOc1ccc(CNC(=O)c2ccc3nc(CC)c(CC)nc3c2)cc1OC,19.8%
5,COc1cccc(N2CCN(c3ccc4nnc(CCC(=O)O)n4n3)CC2)c1,10.9%
6,Cn1cnc(S(=O)(=O)N2CCCC(C(=O)Nc3cccc(C#N)c3)C2)c1 (stereo not given),10.2%
7,Cc1ccc(CNCc2c(C(=O)O)c(C)n(Cc3ccc(C)cc3)c2C)cc1,13.6%
8,O=C(Nc1c(C(=O)c2ccc(F)cc2)oc2ccccc12)c1cc(-c2ccccc2)on1,7.19%
9,COc1ccc(NC(=O)N(Cc2nnc3n2CCCCC3)c2ccc(OC)c(Cl)c2)cc1,-18.2%
10,CC(C)(C)NC(=O)c1ccc2c(c1)N(CC(=O)NC1CCCC1)C(=O)C(C)(C)O2,active: 53.1%
11,CCN(CC)S(=O)(=O)c1nnc(NC(=O)COc2cccc(C)c2)s1,-17.9%
12,Cc1ccc(C)c(N(C)C(=O)C2CCN(c3ncnc4c3nc3n4CCCCC3)CC2)c1,6.68%
13,COc1ccc(CCNC(=O)CCCCCn2c(SCC(N)=O)nc3cc4c(cc3c2=O)OCO4)cc1OC,-17.6%
14,CCN(CC)S(=O)(=O)c1ccc2c(c1)N(CC(=O)Nc1ccc(F)cc1)C(=O)CO2,16.1%
15,Cc1ccc(S(=O)(=O)N2CCCc3cc(NC(=O)c4ccccc4Cl)ccc32)cc1,-2.8%
16,O=C(c1ccc(Oc2ccccc2)cc1)c1nc2c(n1O)CCCC2,active: 31.1%
17,CCOC(=O)CC(NC(=O)Cn1nnc(-c2ccc(C(F)(F)F)cc2)n1)c1ccc(C)cc1 (stereo not given),10.3%
18,CCCOc1cccc(C(=O)NCCNC(=O)c2ccco2)c1,active: 57%
19,O=C(NCC(c1cccnc1)N1CCN(Cc2ccccc2)CC1)C(=O)Nc1cccc(F)c1 (stereo not given),21.5%
20,Cc1ccc(Cn2c(=O)n(CC3CCC(C(=O)N4CCOCC4)CC3)c(=O)c3sccc32)cc1 (stereo not given),1.48%
21,CNC(=O)c1nnc(Cc2ccc(F)cc2)o1,active: 58.1%
22,COc1cccc(-c2nc3c(C#N)c[nH]n3c2NC2CCCCC2)c1OC,8.9%
23,CC(NC(=O)c1sc2ncccc2c1-n1cccc1)c1ccccc1 (stereo not given),5.12%
24,CCSc1nnc(NC(=O)c2cc(C)on2)s1,active: 55.6%

row,Structure (SMILES),inhibition
1,CCC(C)(C)NC(=O)CN(C(=O)CCC(=O)Nc1nccs1)c1ccccc1C,active: 39%
2,COC(=O)c1cc2oc3ccccc3c2n1Cc1c(F)cccc1Cl,7.26%
3,COc1ccc2nc(N3CCN(C(=O)C4CC4)CC3)sc2c1,-18.4%
4,Cc1ccc(C(=O)NCCc2csc(C)n2)cc1,active: 42.7%
5,CCc1cccc(NC(=O)CN2CCCN(Cc3cccc(C)c3)S2(=O)=O)c1,14%
6,Cc1ccc(Cl)cc1N(C)C(=O)c1cnc(N2CCOCC2)c2ccccc12,-12.7%
7,COc1ccc(N2CCN(C(=O)c3ccc4nc(N5CCC(C)CC5)sc4c3)CC2)cc1,-7.56%
8,Cc1ccc2occ(CC(=O)N(Cc3ccc(N(C)C)cc3)C3CCS(=O)(=O)C3)c2c1 (stereo not given),-10.1%
9,CCOc1ccc(CNC(=O)CCC(=O)N2CCSc3ccccc32)cc1,6.81%
10,OC(CSc1c(Cl)cccc1Cl)CN1CCN(c2ccccc2F)CC1 (stereo not given),active: 65.3%
11,O=C(NCCS(=O)(=O)N1CCN(c2ccc(F)cc2)CC1)c1cc(=O)c2ccccc2o1,23.8%
12,COc1ccccc1N1CCN(S(=O)(=O)c2cc3[nH]c(=O)c(=O)[nH]c3cc2C)CC1,12.3%
13,CSc1cccc(Nc2cc(C(=O)NCCCN(Cc3ccccc3)C(C)C)c3ccccc3n2)c1,13.6%
14,Cc1ccc(CCNc2ncnc3onc(C)c23)cc1,-4.99%
15,Cc1ccc(C)c(NC(=O)C(Cc2ccccc2)N2Cc3ccccc3C2=O)c1 (stereo not given),21.7%
16,Cc1ccccc1Nc1cc(C(=O)NC2CCCCC2)c2ccccc2n1,-8.28%
17,Fc1ccc(Nc2ncnc3c2nc2n3CCCC2)cc1,-10.4%
18,Cc1c(NC(=O)c2ccccc2)cc(C(C)C)c(O)c1S(=O)(=O)c1ccc(Cl)cc1,4.81%
19,CCOCCCn1c(SCC(=O)NCCCOC)nc2c(sc3ccccc32)c1=O,-22.1%
20,CCOCCCNC(=O)c1c[nH]c2ccc(S(=O)(=O)Nc3cccc(Cl)c3C)cc2c1=O,11.2%
21,CCOC(=O)N1CCc2c(sc3c2c(=O)n(-c2ccc(Cl)cc2)c(=O)n3Cc2cccc(C)c2)C1,-4.71%
22,O=C(C1COc2ccccc2O1)N1CCc2ccccc21 (stereo not given),active: 35.3%
23,Cc1cc2c(cc1S(=O)(=O)N(C)CC(=O)Nc1cccc(C#N)c1)OCC(=O)N2,-14.3%
24,CC1=Nc2cc(C(=O)NC3CCCC3)ccc2Sc2ccc(Br)cc21,6.53%

row,Structure (SMILES),inhibition
1,COCCCNC(=O)C1CCCN(S(=O)(=O)c2ccc3c(c2)oc(=O)n3C)C1 (stereo not given),-4.35%
2,CCOC(=O)c1cccc(NC(=O)CCn2nc(C)c3c(C)n(-c4ccccc4)nc3c2=O)c1,-12.8%
3,NS(=O)(=O)c1ccc(-c2ccc(/C=C3\SC(=O)NC3=O)o2)cc1,active: 47.3%
4,CCN(CC)c1ccc(NC(=O)CN2CCN(CC(=O)Nc3ccccc3OC)CC2)cc1,18.7%
5,COc1ccccc1CNC(=O)c1ccc(CN2CC(=O)N3CCCCC3C2=O)cc1 (stereo not given),16%
6,Cc1ccc(C)c(NC(=O)N2CCC(N3CCN(Cc4ccc(F)cc4)C(=O)C3=O)CC2)c1,1.09%
7,COc1ccccc1C(=O)NCC1(N2CCN(C)CC2)CCCCC1,22.5%
8,CCNC(=O)CC1C(=O)N(c2ccc(F)cc2)C(=O)N1Cc1ccc(OC)c(OC)c1 (stereo not given),9.82%
9,COc1ccccc1/C=C/CN1CCCC(CO)(CCc2ccccc2)C1 (stereo not given),active: 71.4%
10,Cc1c(C(=O)Nc2ccc(S(=O)(=O)Nc3ncccn3)cc2)oc2ccccc12,active: 46.1%
11,Cc1ccc(C(=O)N2CCN(c3cccc(Cl)c3)CC2)cc1-n1c(C)nc2cccnc21,2.01%
12,CS(=O)(=O)c1ccc(Cl)c(S(=O)(=O)NCc2ccccc2)c1,active: 35%
13,O=C(c1ccc2c(c1)N(Cc1cccc(Cl)c1)C(=O)c1ccccc1S2(=O)=O)N1CCc2ccccc21,14%
14,CCc1ccccc1N(CC)C(=O)C(=O)Nc1ccc2nc3n(c(=O)c2c1)CCCCC3,0.738%
15,COc1cc(Cl)c(C)cc1NC(=O)C1CCCN(c2ncnc3onc(-c4ccc(F)cc4)c23)C1 (stereo not given),4.54%
16,O=C(Nc1cccc(-n2cnnn2)c1)c1ccc(C(F)(F)F)cc1,active: 57.3%
17,Cn1c(COc2ccccc2C(C)(C)C)nc2ccccc21,-8.5%
18,COc1ccc(S(=O)(=O)c2cc3cc(C(C)(C)C)cc(O)c3oc2=O)cc1,24.1%
19,CCCCCn1c(=N)c(S(=O)(=O)c2ccc(C)cc2)cc2c(=O)n3cc(C)ccc3nc21,-1.6%
20,CC(C)(CC(=O)NCc1ccc(Cl)cc1Cl)CC1=NS(=O)(=O)c2ccccc2N1,-11.1%
21,COC(=O)c1ccc(NS(=O)(=O)c2ccc3c(c2)n(C)c(=O)c(=O)n3C)cc1,4.92%
22,CCOC(=O)c1ccc(CN(Cc2ccc(F)cc2)S(=O)(=O)c2ccc(F)c(C(=O)Nc3ccccc3C(F)(F)F)c2)cc1,-25.5%
23,Cn1c2c(c(=O)n(C)c1=O)C(c1ccccc1C(F)(F)F)CC(=O)N2 (stereo not given),1.4%
